Results are given in words; binding and its absence hold for the method and conditions named. In cells and extracts the contact can be indirect. Some entries that bind do so weakly or less than the wild type.
Legend:
[1] = molecular target: GST-GATA3 fusion protein (human) (UniProt P23771); assay: pull-down; GST-GATA3 from E. coli lysate on Glutathione-Sepharose beads; lysates of 293FT cells expressing HIF-1α constructs (CoCl2 800 μM, 4 h) incubated at 4 °C for 18 h, five washes with lysis buffer, western blot; only the target purified
[2] = molecular target: Hypoxia inducible factor-1 alpha (HIF-1α), endogenous (human (endogenous in OEC-M1 and A375)) (UniProt Q16665); assay: co-IP; lysates in RIPA buffer (500 μg total protein) with 2 μg anti-HIF-1α or anti-GATA3 antibody (IgG control) 18 h at 4 °C, protein G agarose, five washes, immunoblot; cells incubated with MG132 (20 μM) and CoCl2 (800 μM) for 6 h; OEC-M1 with control or GATA3 siRNA, A375 with Mock or GATA3 …

The chains behind the UniProt entries cited, without tags or fusion partners. Where a name states a change or a piece, a line headed by the entry shows the natural chain unless it says otherwise. A line that says so, or that is headed by a name, gives the form on record, which may keep a tag or linker. Residues count along the entry.
UniProt P23771: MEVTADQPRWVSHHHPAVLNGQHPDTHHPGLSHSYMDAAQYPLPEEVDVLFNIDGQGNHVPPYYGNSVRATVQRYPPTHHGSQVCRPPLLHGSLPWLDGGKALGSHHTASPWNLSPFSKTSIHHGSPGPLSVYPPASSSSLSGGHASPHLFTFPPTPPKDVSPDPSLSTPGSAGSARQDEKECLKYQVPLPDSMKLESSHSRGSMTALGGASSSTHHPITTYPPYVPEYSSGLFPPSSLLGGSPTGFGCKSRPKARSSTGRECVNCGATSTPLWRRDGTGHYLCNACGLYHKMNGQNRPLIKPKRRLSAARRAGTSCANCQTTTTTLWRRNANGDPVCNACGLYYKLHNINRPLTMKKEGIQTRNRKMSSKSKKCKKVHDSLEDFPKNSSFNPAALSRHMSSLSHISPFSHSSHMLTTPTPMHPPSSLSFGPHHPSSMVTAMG
UniProt Q16665: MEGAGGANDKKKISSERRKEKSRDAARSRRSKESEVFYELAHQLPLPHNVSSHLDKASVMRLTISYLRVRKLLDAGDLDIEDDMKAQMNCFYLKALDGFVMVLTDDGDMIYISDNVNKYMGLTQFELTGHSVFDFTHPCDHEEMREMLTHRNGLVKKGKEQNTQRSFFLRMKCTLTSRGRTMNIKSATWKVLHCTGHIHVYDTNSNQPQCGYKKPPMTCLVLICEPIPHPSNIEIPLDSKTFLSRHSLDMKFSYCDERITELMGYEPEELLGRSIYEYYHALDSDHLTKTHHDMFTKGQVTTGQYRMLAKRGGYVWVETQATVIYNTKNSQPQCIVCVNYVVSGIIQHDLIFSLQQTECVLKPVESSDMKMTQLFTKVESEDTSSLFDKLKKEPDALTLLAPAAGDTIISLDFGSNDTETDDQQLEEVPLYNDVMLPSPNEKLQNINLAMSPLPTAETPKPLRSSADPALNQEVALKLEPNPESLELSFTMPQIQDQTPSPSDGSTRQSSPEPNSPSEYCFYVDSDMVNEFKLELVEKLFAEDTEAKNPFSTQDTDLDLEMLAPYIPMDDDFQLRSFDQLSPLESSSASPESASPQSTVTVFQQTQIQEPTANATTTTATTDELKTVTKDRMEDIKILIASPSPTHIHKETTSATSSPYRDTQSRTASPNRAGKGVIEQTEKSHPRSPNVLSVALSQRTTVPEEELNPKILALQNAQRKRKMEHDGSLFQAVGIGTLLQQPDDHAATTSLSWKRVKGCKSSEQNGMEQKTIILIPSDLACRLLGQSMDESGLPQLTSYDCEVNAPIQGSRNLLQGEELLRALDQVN
N-terminal part of HIF-1α (aa 1-401), Flag-tagged (N-HIF-1α/pCMV-Tag 4A): residues 1-401 of Q16665
C-terminal part of HIF-1α (aa 402-826), Flag-tagged (C-HIF-1α/pCMV-Tag 4A): residues 402-826 of Q16665

Substance | binding [1] | binding [2]
C-terminal part of HIF-1α (aa 402-826), Flag-tagged (C-HIF-1α/pCMV-Tag 4A) (from UniProt Q16665-1 402-826) (domain or fragment) | no binding | 
Full-length HIF-1α, Flag-tagged (F-HIF-1α/pCMV-Tag 4A) (from UniProt Q16665-1 1-826) | binds | 

The remaining lines, values ahead:

binding [1] | binding [2] | Substance
 | binds | GATA3 expressed from GATA3/pcDNA3.1 in A375 cells (from UniProt P23771-1 1-443)
 | binds | GATA binding protein 3 (GATA3), endogenous in OEC-M1 cells (from UniProt P23771 1-443)
binds |  | N-terminal part of HIF-1α (aa 1-401), Flag-tagged (N-HIF-1α/pCMV-Tag 4A) (from UniProt Q16665-1 1-401) (domain or fragment)

Reference: paper PMC5537608
